Data published in patent publication US20230416196A1, “DIMER OF BIGUANIDINES AND THEIR THERAPEUTIC USES” (INSTITUT CURIE, priority 2020, published 2023).
Values joined by “and” are separate entries in the source; they are usually repeats but may differ in a detail not shown here. Equal values may be shown once. Where a name gives a salt, the structure may show the parent alone. The name of at least one read-out is uncertain.

System: activated macrophages (act. MDM), CD86 activation marker
Experiment: CD86 macrophage activation marker by flow cytometry in LPS/IFNγ-activated monocyte-derived macrophages (Example 4)
Format: cell-based, human
Details: 24 h co-treatment
Method: Cell culture. U-937 cells were grown in an incubator equilibrated at 37° C. with 5% CO2, grown to confluence and split with Trypsin/EDTA (Gibco, […]01) once or twice a week according to confluence. U-937 (ATCC, HTB-132) were cultured in RPMI 1640 GLUTAMAX (ThermoFisher Scientific, 61870044) supplemented with 10% Fetal Bovine Serum (FBS, Gibco, 10270-106) and Penicillin-Streptomycin mixture (BioWhittaker/Lonza, DE17-602E). […] Peripheral blood samples were collected from distinct healthy donors (Etablissement Français du Sang). Pan monocytes were isolated by negative magnetic sorting using microbeads according to the manufacturer's instructions (Miltenyi Biotec, 130-096-537), and cultured in RPMI 1640 supplemented with glutamine (Thermo Fisher Scientific, 61870010), 10% fetal bovine serum and exposed to granulocyte-macrophage colony-stimulating factor (GM-CSF, Miltenyi Biotec, 130-093-866, 100 ng/mL) to induce differentiation into macrophages (MDM). […] Flow cytometry. Cells were washed with ice-cold 1×PBS, incubated with Fc block (Human TruStain FcX, Biolegend, 422302, 1/20) for 15 min, incubated with antibodies for 20 min at 4° C. and washed before analysis using a BD LSRFortessa X-20. Macrophages were analyzed with an antibody panel consisting of antibodies against the following cell surface proteins: CD44, CD80, CD86 and TfR1. The data were analyzed with FlowJo software v. 10.0.00003. Flow cytometry analysis of lysosomal iron content: […]

[1] = LCCs at 10 μM, several values per compound
[2] = 1 μM, several values per compound

With N=C1NCCCCCCCCCCNC(=N)NC(=N)NCCCCCCCCCCNC(=N)N1 [Coronaformin-10,10] the “Effect on CD86 macrophage activation marker (Flow cytometry) (% of activation marker compared to its level in activated macrophages)” value [1] was 50% and 45%.
For CCNC(=N)NC(=N)NCCCCCCCCCCNC(=N)NC(=N)NCC [LCC-10,2], the “Effect on CD86 macrophage activation marker (Flow cytometry) (% of activation marker compared to its level in activated macrophages)” value [2] was 54% and 58% and the “Effect on CD86 macrophage activation marker (Flow cytometry) (% of activation marker compared to its level in activated macrophages)” value [1] was 32% and 29%.
In the case of CN(C)C(=N)NC(=N)N [Metformin, 1,1-dimethylbiguanid hydrochloride, reference compound], the “Effect on CD86 macrophage activation marker (Flow cytometry) (% of activation marker compared to its level in activated macrophages)” value (Met at 10 mM, several values, hydrochloride) was 70% and 56% and 57% and 53% and 51% and 59% and 62%.
With CCCNC(=N)NC(=N)NCCCCCCCCNC(=N)NC(=N)NCCC [LCC-8,3] the “Effect on CD86 macrophage activation marker (Flow cytometry) (% of activation marker compared to its level in activated macrophages)” value [1] was 59% and 39%.
N=C(N)NC(=N)NCCCCCCCCCCCCNC(=N)NC(=N)N [LCC-12, lipophilic copper clamp C12] was tested, and the “Effect on CD86 macrophage activation marker (Flow cytometry) (% of activation marker compared to its level in activated macrophages)” value [2] was 83% and 51% and the “Effect on CD86 macrophage activation marker (Flow cytometry) (% of activation marker compared to its level in activated macrophages)” value [1] was 25% and 29% and 26% and 18% and 24% and 22% and 20% and 27%.
In the case of CCCNC(=N)NC(=N)NCCCCCCCCCCNC(=N)NC(=N)NCCC [LCC-10,3], the “Effect on CD86 macrophage activation marker (Flow cytometry) (% of activation marker compared to its level in activated macrophages)” value [2] was 38% and 43%.
In the case of N=C1NCCCCCCCCCCCCNC(=N)NC(=N)NCCCCCCCCCCCCNC(=N)N1 [Coronaformin-12,12], the “Effect on CD86 macrophage activation marker (Flow cytometry) (% of activation marker compared to its level in activated macrophages)” value [2] was 62% and 55%.
CN(CCCCCCCCCCCCN(C)C(=N)NC(=N)N)C(=N)NC(=N)N [LCC-12Me] was tested, and the “Effect on CD86 macrophage activation marker (Flow cytometry) (% of activation marker compared to its level in activated macrophages)” value [1] was 24% and 15% and 17%.
